About 14,000 (4.5%) of roughly 310,000 compounds showed an effect of 50% or more. Effects have a minus sign here. The list shows a part of the results.
biological target: human ether-à-go-go-related gene (hERG) potassium channel (human, UniProt Q12809); assay: primary screen, population patch clamp on CHO cells stably expressing hERG
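Further: peak tail current of the secondary pulse compared with the same well before compound.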

Chain of human ether-à-go-go-related gene (hERG) potassium channel (Q12809 whole entry, looked up): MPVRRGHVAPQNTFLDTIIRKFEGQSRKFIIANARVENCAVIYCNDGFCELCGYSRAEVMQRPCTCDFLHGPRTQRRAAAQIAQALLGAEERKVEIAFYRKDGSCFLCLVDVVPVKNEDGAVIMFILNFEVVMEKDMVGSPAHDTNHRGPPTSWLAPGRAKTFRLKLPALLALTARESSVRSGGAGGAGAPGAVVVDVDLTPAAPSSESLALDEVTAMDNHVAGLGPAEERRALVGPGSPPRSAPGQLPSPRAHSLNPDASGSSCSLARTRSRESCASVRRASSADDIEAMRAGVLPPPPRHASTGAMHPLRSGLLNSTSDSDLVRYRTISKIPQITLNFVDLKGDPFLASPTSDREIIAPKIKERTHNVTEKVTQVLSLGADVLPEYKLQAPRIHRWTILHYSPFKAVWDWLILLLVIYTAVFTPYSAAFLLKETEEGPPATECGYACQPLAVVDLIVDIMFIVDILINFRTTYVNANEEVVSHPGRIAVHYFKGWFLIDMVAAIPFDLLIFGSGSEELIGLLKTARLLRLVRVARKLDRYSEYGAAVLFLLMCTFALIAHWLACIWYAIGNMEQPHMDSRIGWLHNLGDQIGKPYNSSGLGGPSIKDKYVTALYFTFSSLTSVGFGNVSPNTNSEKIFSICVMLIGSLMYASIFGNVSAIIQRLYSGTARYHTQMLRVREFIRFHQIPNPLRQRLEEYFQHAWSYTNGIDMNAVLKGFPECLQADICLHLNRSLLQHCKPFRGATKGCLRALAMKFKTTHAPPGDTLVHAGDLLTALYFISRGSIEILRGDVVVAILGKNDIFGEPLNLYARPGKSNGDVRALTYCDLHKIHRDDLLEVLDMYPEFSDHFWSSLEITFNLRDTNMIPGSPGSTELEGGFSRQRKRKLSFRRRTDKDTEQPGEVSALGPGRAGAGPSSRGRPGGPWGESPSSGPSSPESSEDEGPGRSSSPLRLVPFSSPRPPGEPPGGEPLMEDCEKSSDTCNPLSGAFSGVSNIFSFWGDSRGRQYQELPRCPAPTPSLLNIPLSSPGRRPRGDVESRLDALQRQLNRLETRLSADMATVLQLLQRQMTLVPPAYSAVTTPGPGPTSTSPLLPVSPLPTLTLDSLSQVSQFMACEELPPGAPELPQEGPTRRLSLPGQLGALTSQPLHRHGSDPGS

Row | Structure (SMILES) | hERG current change (%, negative = inhibition) at 10uM [%]
1 | CC(=O)N1CCCC(C(=O)c2ccc(Oc3ccccc3)cc2)C1 (stereo not shown) | -5.43
2 | CC(NC(=O)COC(=O)CC(c1ccccc1)c1ccccc1)c1ccccc1 (stereo not shown) | -24.7
3 | O=C(Nc1ccccc1)c1c(O)c2c(n(Cc3ccco3)c1=O)CCCC2 | 10.8
4 | CCC(c1nnnn1Cc1ccccc1)N1CCN(C(=O)c2ccco2)CC1 (stereo not shown) | -36.3
5 | Cc1ccc(C(=O)Nc2ccccc2N2CCCC2)cc1S(=O)(=O)N1CCOCC1 | -51.2
6 | CCOc1cc(OCC)c(C(C)=O)cc1OCC | 20.1
7 | CCc1c(O)cc(=O)n(-c2ccccc2)c1-c1ccccc1 | 6.51
8 | Cc1ccc(C)c(NC(=O)COC(=O)CCC(=O)c2cccs2)c1 | 16.6
9 | CCCCOc1cccc(C(=O)Nc2ccc(N3CCN(CC)CC3)cc2)c1 | -31.9
10 | O=C(c1ccc(F)cc1)C1CCN(C(=O)c2ccncc2)CC1 | -22.4
11 | CN(C)C(=O)COC(=O)c1cc(Cl)cc(Cl)c1N | -14.4
12 | Cc1ccc(C(C(=O)NC(C)(C)C)N(CC2CCCO2)C(=O)Cn2nnc(-c3ccc(C)o3)n2)cc1 (stereo not shown) | 1.13
13 | COc1ccc(C(=O)N(CC(=O)NC(C)(C)C)c2ccc3c(c2)OCCO3)cc1OC | 3.82
14 | COC(=O)c1ccc(COC(=O)c2cccn2C)o1 | 0.0514
15 | Cc1cc(C)cc(-n2c(C)cc(C=C(C#N)C#N)c2C)c1 | 3.61
16 | COC(=O)c1cc(S(=O)(=O)N2CCOCC2)c(Cl)cc1N1CCOCC1 | -15
17 | COCCCN1C2=C(C(=O)CC(C)(C)C2)C(c2ccc(O)c(OC)c2)C2=C1CC(C)(C)CC2=O | 11.2
18 | COc1ccc(NC(=O)CCC(=O)OCc2ccc(Br)cc2)cc1 | 0.107
19 | CCC(C)(C)NC(=O)c1ccc2c(c1)N(CC(=O)NC1CCCC1)C(=O)C(C)(C)O2 | 8.4
20 | O=C1C2C3C=CC(C3=C(c3ccccc3)c3ccccc3)C2C(=O)N1Cc1ccccc1 (stereo not shown) | 16.4
21 | Cc1cc(NS(=O)(=O)c2ccc(Br)s2)no1 | 17.4
22 | CCOc1ccc(NC(=O)CN(C)C(=O)CCCOc2ccc(Br)cc2)cc1OCC | 3.76

Row | Structure (SMILES) | hERG current change (%, negative = inhibition) at 10uM [%]
23 | CCC(=O)n1nc(-c2ccccc2)nc1N | 9.61
24 | CC1CCC(NC(=O)CN2C(=O)NC(C)(C)C2=O)CC1 (stereo not shown) | 10.4
25 | COc1ccc(S(=O)(=O)Nc2nc3ccccc3nc2NCc2ccc3c(c2)OCO3)cc1 | 31.5
26 | O=C(NCCN1CCN(C(=O)c2ccc([N+](=O)[O-])cc2)CC1)C(=O)Nc1ccc(F)cc1 | -76.8
27 | O=C(c1ccco1)N1CCN(S(=O)(=O)c2ccc(Cl)s2)CC1 | -21.1
28 | CS/C(=N\S(=O)(=O)c1ccc(Cl)cc1)c1ccccc1 | -28.1
29 | COc1ccc(CCN2C(=O)CC(N3CCN(c4ccccn4)CC3)C2=O)cc1OC (stereo not shown) | 3.42
30 | COc1ccc(OC)c(S(=O)(=O)Nc2ccccc2SC)c1 | -15.2
31 | CC(NC(=O)CC1CCCCC1)c1ccccc1 (stereo not shown) | 17.4
32 | COc1ccc(C)cc1NC(=O)CN1CCN(S(=O)(=O)c2ccc(F)cc2)CC1 | 7.19
33 | CCOC(=O)CSc1nnc(-c2cccnc2)o1 | 7.96
34 | Cc1cc(-c2nnc(SCC(=O)Nc3nc(-c4ccccc4)cs3)o2)no1 | -1.5
35 | CCOc1ccc(OCCCC(=O)ON=C(N)c2ccccc2C)cc1 | 1.43
36 | Cc1ccc(C2=NO[C@@](CC(=O)O)(C(=O)Nc3ccc4c(c3)OCCO4)C2)cc1 | 11.8
37 | COC(=O)C1=C(CS(=O)(=O)c2ccc(Cl)cc2)NC(=O)NC1c1ccc(O)cc1 (stereo not shown) | 7.7
38 | CC[n+]1c(/C=C/c2cc([N+](=O)[O-])ccc2O)ccc2ccccc21.[I-] | -27.3
39 | CCOc1ccc(NC(=O)CSc2nc3ccccc3c(=O)n2CCNC(C)=O)cc1 | -6.93
40 | O=C(COC(=O)Cc1ccc(F)cc1)NC(=O)NC1CCCC1 | -4.92
41 | Cc1cc(N=Nc2ccc(Cl)cc2)cc(CN2CCCC2)c1O | 10.3
42 | Cc1cc(C(=O)Nc2cccc(NC(=O)c3ccco3)c2)ccc1[N+](=O)[O-] | 6.11
43 | COCCN1Cc2cccc(C(=O)Nc3ccc(C)cc3)c2C1=O | -27.3
44 | C#CCOCCOCCOCCNc1nc(N2CCN(C(=O)[C@H]([C@@H](C)CC)n3cc(CCC[NH+]=C(N)N)nn3)CC2)nc(N2CCN(C(=O)[C@H](CCCC[NH3+])n3cc(CCCC)nn3)CC2)n1.[Cl-] | 7.25

Row | Structure (SMILES) | hERG current change (%, negative = inhibition) at 10uM [%]
45 | CC1CCc2cc(F)ccc2N1C(=O)CSc1nnc2c(n1)[nH]c1ccc(F)cc12 (stereo not shown) | 20.7
46 | Cc1ccc(SCC(=O)N2CCOCC2)cc1 | 4.71
47 | COc1ccccc1OCCNCC(O)COc1cccc2[nH]c3ccccc3c12 (stereo not shown) | -65.6
48 | O=Cc1ccc(OCc2nnc(-c3ccccc3Br)o2)cc1 | -22.3
49 | Nn1c(COc2ccccc2F)nnc1SCC(=O)NC1CCS(=O)(=O)C1 (stereo not shown) | -7.72
50 | CCOC(=S)SCc1cn2cccc(C)c2n1 | -11.5
51 | N#Cc1ccccc1S(=O)(=O)Nc1ccc2c(c1)C(=O)OC2 | 15.3
52 | O=C1Nc2cc(C(=O)NCCCN3CCOCC3)ccc2S/C1=C/c1cccc(Cl)c1 | 9.36
53 | NS(=O)(=O)c1ccc(CCNC(=O)c2ccc(-c3ccccc3)cc2)cc1 | 9.92
54 | O=C(CSc1ncn[nH]1)CSc1ncn[nH]1 | 13.6
55 | COC(=O)C1(CCSC)NC(c2ccccc2OC)C2C(=O)N(C)C(=O)C21 (stereo not shown) | -4.79
56 | COC(=O)C1=C(C)NC(=O)/C1=C\c1ccc2c(c1)OCO2 | 5.31
57 | CN(CC(=O)NCCc1ccccn1)S(=O)(=O)c1ccc(Cl)cc1 | -17
58 | O=C(CN(C1CCCCC1)S(=O)(=O)c1ccc(Cl)cc1)NCc1ccncc1 | -69.8
59 | O=C(CC1C(=O)N(c2ccc(F)cc2)C(=O)N1Cc1ccccn1)Nc1ccccc1 (stereo not shown) | -6.3
60 | O=C(O)c1cc(C(=O)C2CC2)c[nH]1 | 11.5
61 | Cc1ccccc1OCCCCn1c(CO)nc2ccccc21 | -45.1
62 | CC1CN(C(=O)C(C)N2CCN(c3ccccc3Cl)CC2)CC(C)O1 (stereo not shown) | 5.63
63 | O=C(Nc1ccc(S(=O)(=O)N2CCCCC2)cc1)c1ccccc1Cl | -73.1
64 | CN(C)CCCn1c(=O)n(C2CCCCC2)c(=O)c2c3c(sc21)CCCCC3 | -53.8
65 | CCOc1ccc(NC(=O)Cn2nc(-c3ccccc3Cl)n(CC)c2=S)cc1 | -0.968
66 | CCCCn1c(N)c(N(CC(C)C)C(=O)CCC2CCCCC2)c(=O)[nH]c1=O | -8.68

Row | Structure (SMILES) | hERG current change (%, negative = inhibition) at 10uM [%]
67 | Cc1ccc(/C([O-])=C(/C(=S)NCCN2CCOCC2)[n+]2ccccc2)cc1[N+](=O)[O-] | 18.8
68 | COc1ccc(N(CC(=O)N2CCN(C)CC2)S(=O)(=O)c2ccccc2)cc1OC | 4.24
69 | COc1ccc(OCC(=O)OC2CCN(C)CC2)cc1.Cl | -2.74
70 | O=[N+]([O-])c1cccc2cn[nH]c12 | 5.18
71 | COc1ccc(Cl)cc1N(CC(=O)Nc1ccccc1C(=O)NCc1ccco1)S(C)(=O)=O | 14
72 | CC(NC(=O)c1cc(Br)ccc1Cl)c1ccccc1 (stereo not shown) | 1.19
73 | CCc1c(C)nc2ncnn2c1NC1CCCc2ccccc21 (stereo not shown) | -12.1
74 | O=C(NCCN1CCN(c2ccc([N+](=O)[O-])cc2)CC1)NCc1ccccc1 | -67.7
75 | COc1ccc(-n2c(O)c(C=NCC(c3ccco3)N3CCCC3)c3ccccc3c2=O)cc1OC (stereo not shown) | 3.34
76 | CC1CCc2c(sc3ncn(Cc4ccc(C(=O)O)cc4)c(=O)c23)C1 (stereo not shown) | 4.62
77 | CN(C)CCCOC(=O)c1ccc(Br)cc1 | -36
78 | CCCn1c(SCC(=O)NC2CCCC2)nc2c1c(=O)n(C)c(=O)n2C | -6.13
79 | CSc1sc(C(=O)NN)c2c1C(O)CCC2 (stereo not shown) | 11.5
80 | CCOc1ccccc1OCCCCCc1c(C)n[nH]c1C | -11.9
81 | O=C(Nc1cccc(C(F)(F)F)c1)C(Sc1ncnc2ccccc12)c1ccccc1 (stereo not shown) | 0.968
82 | C=CCOc1c(Br)cc(/C=N/NC(N)=O)cc1OC | -26.4
83 | O=S(=O)(c1ccc2nc(Cc3cccc(C(F)(F)F)c3)[nH]c2c1)N1CCOCC1 | -30
84 | COc1ccc2c(c1OC)C(=O)N(c1ccc(O)cc1)C2=O | 13.4
85 | O=C(NCc1ccco1)C(c1cccs1)N(C(=O)Cc1cccs1)c1ccccc1 (stereo not shown) | 7.49
86 | CC1CC1C(=O)OCC(=O)NCc1ccc(Cl)cc1Cl (stereo not shown) | -15.2
87 | CCn1c(O)c(C=NC2CCCC2)sc1=S | -13.3
88 | C=CCCCCCCCCc1nc(SCC(C)=O)n[nH]1 | 4.57
